# Measurements: PubChem BioAssay AID1347434 (National Center for Advancing Translational Sciences (NCATS), 2020)
# The whole screen tested about 1,200 compounds, of which about 30 (2%) were called active. Another 23% or so got no clear call; they are omitted. Calls come from the whole dose curve; as a rule, active = well fitted inhibition curve with a large enough effect; inconclusive = small, poorly fitted or top-dose-only effect; inactive = flat fitted curve, though single readings scatter. The list shows a part of the results.
# Molecular target: Single-stranded DNA cytosine deaminase (Homo sapiens) (UniProt Q9GZX7)
# Chain of UniProt Q9GZX7 (Q9GZX7 whole entry, looked up): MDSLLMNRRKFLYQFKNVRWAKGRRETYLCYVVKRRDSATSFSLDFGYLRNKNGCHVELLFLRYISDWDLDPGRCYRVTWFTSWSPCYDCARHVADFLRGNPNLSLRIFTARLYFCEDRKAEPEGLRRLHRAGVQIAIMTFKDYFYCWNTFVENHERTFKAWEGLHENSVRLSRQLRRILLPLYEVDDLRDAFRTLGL
# Test: Confirmatory qHTS assay for inhibitors of Activation Induced Cytidine Deaminase (AID): AID signals
# Conditions: recombinant AID, FRET deamination/UDG coupled fluorescence, 4 h; series mostly up to 115 µM; activity, negative = inhibition: at the top concentration
# Excerpt: Assay Provider (PI) Patricia Gearhart Ph.D. National Institute on Aging National Institute of Health (NIH), Bethesda, MD Assay Provider (PI) Rahul Kohli Ph.D. Perelman School of Medicine University of Pennsylvania, Philadelphia, PA Activation-Induced Deaminase (AID) is a cytosine deaminase which converts cytosine into uracil within stretches of ssDNA. The presence of uracil in DNA initiates a cascade of mutagenic DNA repair to introduce point mutations and DNA double strand breaks. Specific targeting of AID to the immunoglobulin heavy chain loci (Igh) promotes mutagenesis in the antibody variable region for somatic hypermutation (SHM) or switch regions leading to class switch recombination (CSR). However, AID also plays a role in accumulating unnecessary mutations across the genome. Mis-targeting of AID results in the initiation of tumor development and leads to greater drug resistance among cancer cells when continually expressed. To identify an AID inhibitor, a small molecule library will be screened in collaboration with NCATS core facility at NIH. To confirm biological function, inhibitors will be examined in an in vitro murine B-cell activation assay and subsequent secondary validation screens. Top molecules will be further screened to identify inhibitory efficacy against a wild type primary splenocytes assay. Using these approaches, we hope to identify a small molecule with great efficacy and low toxicity for use as a molecular probe to further characterize AID's intricacies, or even as a therapeutic. A FRET based analysis of cytosine deamination, was developed to identify potential inhibitors of AID catalytic activity. This screen has two signal output, Read 1 evaluates the AID inhibition response. The second readout (Read 2) evaluates UDG response and is uses as a counterscreen to exclude false positive inhibitors. Inhibition in AID and inactivity in the UDG signal is the desired outcome for this assay.
# PROTOCOL TABLE SEQUENCE No. (e.g., 1, 2, 3, etc.); […] (e.g., Cells, Incubation, Reagent, etc.); VALUE; DESCRIPTION 1a; Reagent; 3 uL; [4/3x] 1 uM AID/2.67 U/mL UDG 1b; Reagent; 3 uL; 2 U/mL UDG 1c; Reagent; 3 uL; 1 uM AID 2a; Compound; 46 nL; Follow-up plates (0.64 uM - 10 mM) 2b; Control; 46 nL; ATA (16.4 nM - 10 mM) 3; Time; 10 min; incubation at room temperature 4; Reagents; 1 uL; [4x] 250 nM DJC20 / 250 nM DJC23 [Substrate] 5; Time; 4 hr; incubation at room temperature 6; Reagent; 4 uL; [2x] 250 mM NaOH 7; Time; 15 sec; centrifuge at 1000 rpm 8; Time; 30 min; incubation at room temperature 9a; Detection; fluorescence (Read 1: AID); EnVision (PerkinElmer) plate reader, 540 excitation and 590 emission filters 9b; Detection; fluorescence (Read 2: UDG); EnVision (PerkinElmer) plate reader, 560 excitation and 665 emission filters NOTES (numbers refer to sequence above) 1a; Reagents were dispensed in a medium-binding black solid-bottom Greiner plates (789176F) using a BioRptr liquid dispenser. Dispense 3 uL of [4/3x] 1 uM AID (provided by Kohli lab) and [4/3x] 2 U/mL UDG (NEB M0280L) into columns 1, 2, 5 to 48. 1b; Dispense 3 uL of [4/3x] 2 U/mL UDG into column 3. 1c; Dispense 3 uL of [4/3x] 1 uM AID into column 4. 2a; Compound ([…] [uM]: 0.64; 3.2; 16; 80; 400; 2,000; 10,000; 20,000) double pin-transferred (Dip Factor = 2) using the Kalypsys (Wako USA) pintool equipped with a 1536 pinhead for a final concentration range of 7.32 nM - 114 uM. 2b; 10 mM Aurintricarboxylic Acid (Sigma A1895) (ATA, 8-point, n = 2, 1:2.5 dilution in column 2) double pin-transferred (Dip Factor = 2) using the Kalypsys (Wako USA) pintool equipped with a 1536 pinhead for a [final] range of 186 nM - 114 uM. 3; Room temperature incubation. 4; Dispense 1 uL of substrate mixture from the Kohli lab [4x] […] DJC20 and [4x] 250 nM DJC23 into columns 1 to 48 . 5; Room temperature incubation. 6; Dispense 4 uL of […] [2x] 250 mM NaOH into columns 1 to 48. 7; Centrifugation step to remove bubbles. […]
# % is set by controls: 0 for no effect and ±100 for the full control effect; potency is the fitted concentration of half-maximal effect.
Structure (SMILES),"activity, negative = inhibition",Potency
O=C(Nc1cccc(Cl)c1)C1CCCN(c2nn3cc(-c4ccc(F)cc4)nc3s2)C1 (stereo not given),inactive: -10.1%,–
CCOc1ccc(C(=O)c2cn(CC(=O)Nc3ccc4c(c3)OCO4)c3ccc(OC)cc3c2=O)cc1,inactive: -8.49%,–
COc1ccccc1CNC(=O)CSc1nc2nc(C)c(Cc3ccccc3Cl)c(C)n2n1,inactive: -14.1%,–
CCOc1ccc(CCNC(=O)c2nc(-c3cccc(F)c3)n3c2CCCCC3)cc1OCC,inactive: -12%,–
COc1ccc(C(=O)N(Cc2ccc(N(C)C)cc2)Cc2ccco2)cc1Cl,inactive: -0.171%,–
CCN(CC)C(=O)c1ccc2c(c1)N(Cc1ccc(C(F)(F)F)cc1)C(=O)c1ccccc1S2,inactive: -4.88%,–
CCOC(=O)C1CCCN(c2nc3c(S(=O)(=O)c4ccc(CC)cc4)nnn3c3ccc(Cl)cc23)C1 (stereo not given),inactive: -1.46%,–
CCOC(=O)c1cccc(NC(=O)c2oc3c(c2C)-c2[nH]ncc2CC3)c1,inactive: -11.2%,–
O=C(COc1ccccc1)NCc1ccc2c(c1)CCN2C(=O)c1ccc(F)cc1,inactive: -5.84%,–
Cc1cccc(CNC(=O)c2oc3c(c2C)-c2nn(Cc4ccccc4Cl)cc2CC3)c1,inactive: 17.7%,–
Cc1ccc(Cl)cc1NC(=O)c1oc2c(c1C)-c1[nH]ncc1CC2,inactive: 28.2%,–
Cc1ccc(Nc2c(-c3ccc(C)cc3)nc3cnccn23)cc1,inactive: -6.72%,–
O=C(Cc1ccc(F)cc1)N1CCC(c2nc3c(nnn3Cc3ccc(Cl)cc3)c(=O)[nH]2)CC1,inactive: -5.41%,–
CCc1ccc(CNC(=O)c2ccc(CSc3nc4ccncc4n3Cc3ccccc3)cc2)cc1,inactive: 4.54%,–
C[N+](C)(CCCCCC[N+](C)(C)CCCN1C(=O)c2cccc3cccc(c23)C1=O)CCCN1C(=O)c2cccc3cccc(c23)C1=O,–,active: 5.01 µM
CC1(C)CC(=O)c2cc(C#N)c(=O)n(-c3ccc(Cl)cc3)c2C1,inactive: 7.89%,–
Cc1nc2c(C(=O)NCc3ccccc3)cnn2c(C)c1Cc1ccc(F)cc1,inactive: -26.7%,–
CCN1C(=O)c2ccccc2Sc2ccc(NC(=O)COc3ccc(Cl)cc3)cc21,inactive: -10.5%,–
CCN(CC)c1cc(C)c2cc(NC(=O)c3ccc(OC)c(OC)c3)ccc2n1,inactive: -2.1%,–
Cc1cc(Nc2cccc(C(F)(F)F)c2)nc2ccc(NC(=O)Cc3ccc(Cl)cc3)cc12,inactive: -8.67%,–
COc1ccc(Cl)cc1NC(=O)CSc1nc(=O)n(Cc2ccco2)c2c1CCC2,inactive: -18.2%,–
Cc1cc(C)cc(Nc2nc3cc(Cl)c(Cl)cc3nc2-n2nc(C)cc2C)c1,inactive: 10.3%,–
COc1cc2c(cc1OC)C(COc1ccc(F)cc1)N(C(=O)c1cccc(F)c1)CC2 (stereo not given),inactive: -9.9%,–
Cc1cc(C)cc(NC(=O)Cn2nnc(C(=O)NCc3ccco3)c2N)c1,inactive: -23.8%,–
CCOc1ccc(N(CC)S(=O)(=O)N2CCCC(C(=O)NCCc3ccccc3OC)C2)cc1 (stereo not given),inactive: -5.97%,–
